This passage reports AUC and IC50 results from the supplement of paper PMC4967469.

By IC50 is meant the dose at which the fit gives 50% viability; where the fit passes the top or lowest dose, that dose stands as a limit. The AUC spans the tested range (256-fold, ending at the top dose) of the same fit; the more sensitive the line, the further below 1. An inferred top dose comes from the curve model; the source does not state it.

Compound in the test: CCn1cc(-c2ccnc3[nH]c(-c4cccc(CN(C)C)c4)cc23)c(-c2ccc(NC(=O)N(C)C)cc2)n1 [GSK1070916]
Description: Viability of human cancer cell lines after 72 h of drug (GDSC screen). The following applies: top dose inferred. How it is done:
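Human cancer cell lines in 384-well plates, medium with 10% serum, drug for 72 h over a 256-fold dose range (nine 2-fold or five 4-fold steps up to the top dose). Adherent lines were fixed and stained with the nucleic acid dye Syto60, suspension lines read with resazurin; signal relative to control wells, capped at 0 and 100%. One two-parameter sigmoid per drug and line, fitted in a mixed model over all curves with the slope shared within a line.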
Turning to “ESS-1 (endometrium, adherent, top dose 2.56 µM)”, the AUC is 0.936 and the half-inhibitory concentration (IC50) is greater than 2560 nM.
As to “ETK-1 (biliary tract, adherent, top dose 2.56 µM)”, the AUC turned out to be 0.895 and the IC50 is greater than 2560 nM.
For “EVSA-T (breast, adherent, top dose 2.56 µM)” the same measures were 0.991 and greater than 2560 nM.
Consider “EW-1 (Ewing sarcoma, semi-adherent, top dose 2.56 µM)”, for which the AUC worked out at 0.391 and the concentration for half-maximal inhibition (IC50) was 82.7 nM.
As to “EW-3 (Ewing sarcoma, adherent, top dose 2.56 µM)”, the AUC is 0.889 and the half-inhibitory concentration (IC50) was greater than 2560 nM.
For “EW-7 (Ewing sarcoma, semi-adherent, top dose 2.56 µM)” the same measures were 0.692 and 513 nM.
For “EW-11 (Ewing sarcoma, adherent, top dose 2.56 µM)” the same measures were 0.788 and 1500 nM.
With “EW-13 (Ewing sarcoma, suspension, top dose 2.56 µM)”, the AUC worked out at 0.687 and the half-inhibitory concentration (IC50) is 571 nM.
On to “EW-16 (Ewing sarcoma, adherent, top dose 2.56 µM)”, for which the AUC was 0.9 and the IC50 is greater than 2560 nM.
Consider “EW-18 (Ewing sarcoma, suspension, top dose 2.56 µM)”, for which the AUC is 0.145 and the IC50 stood at 11.3 nM.
For “EW-24 (Ewing sarcoma, semi-adherent, top dose 2.56 µM)” the same measures were 0.993 and greater than 2560 nM.
For “EoL-1-cell (haematopoietic neoplasm, suspension, top dose 2.56 µM)” the same measures were 0.812 and 1170 nM.
Consider “FADU (head and neck, adherent, top dose 2.56 µM)”, for which the AUC was found to be 0.977 and the IC50 was greater than 2560 nM.
As to “FLO-1 (oesophagus, adherent, top dose 2.56 µM)”, the AUC came out at 0.898 and the IC50 was greater than 2560 nM.
Take “FTC-133 (thyroid, adherent, top dose 2.56 µM)”: the AUC worked out at 0.986 and the concentration for half-maximal inhibition (IC50) was greater than 2560 nM.
As to “FU97 (stomach, adherent, top dose 2.56 µM)”, the AUC turned out to be 0.969 and the IC50 is greater than 2560 nM.
On to “FU-OV-1 (ovary, adherent, top dose 2.56 µM)”, for which the AUC came to 0.885 and the IC50 is greater than 2560 nM.
Turning to “Farage (B-cell lymphoma, suspension, top dose 2.56 µM)”, the AUC stood at 0.943 and the IC50 was greater than 2560 nM.
For “G-292 Clone A141B1 (osteosarcoma, adherent, top dose 2.56 µM)” the same measures were 0.869 and greater than 2560 nM.
For “G-361 (melanoma, adherent, top dose 2.56 µM)” the same measures were 0.957 and greater than 2560 nM.
“G-401 (kidney, adherent, top dose 2.56 µM)”: the AUC was determined as 0.771 and the IC50 stood at 1080 nM.
“G-402 (soft tissue, adherent, top dose 2.56 µM)”: the AUC was 0.811 and the IC50 came to 1950 nM.
For “G-MEL (melanoma, adherent, top dose 2.56 µM)” the same measures were 0.963 and greater than 2560 nM.
For “GAMG (glioma, adherent, top dose 2.56 µM)” the same measures were 0.452 and 117 nM.
For “GB-1 (glioma, adherent, top dose 2.56 µM)” the same measures were 0.948 and greater than 2560 nM.
“GCIY (stomach, adherent, top dose 2.56 µM)”: the AUC was 0.972 and the half-inhibitory concentration (IC50) is greater than 2560 nM.
As to “GCT (soft tissue, adherent, top dose 2.56 µM)”, the AUC was 0.989 and the 50% inhibitory concentration (IC50) was greater than 2560 nM.
In the case of “GDM-1 (acute myeloid leukaemia, suspension, top dose 2.56 µM)”, the AUC is 0.304 and the IC50 is 46.4 nM.
As to “GI-1 (glioma, adherent, top dose 2.56 µM)”, the AUC is 0.931 and the IC50 is greater than 2560 nM.
For “GI-ME-N (neuroblastoma, adherent, top dose 2.56 µM)” the same measures were 0.809 and 1990 nM.
The matching figures for “GMS-10 (glioma, adherent, top dose 2.56 µM)”: 0.988 and greater than 2560 nM.
For “GOTO (neuroblastoma, adherent, top dose 2.56 µM)” the same measures were 0.972 and greater than 2560 nM.
Take “GP5d (large intestine, adherent, top dose 2.56 µM)”: the AUC was 0.952 and the half-inhibitory concentration (IC50) was greater than 2560 nM.
Consider “GR-ST (lymphoblastic leukaemia, suspension, top dose 2.56 µM)”, for which the AUC is 0.826 and the IC50 worked out at 2010 nM.
Take “GRANTA-519 (B-cell lymphoma, suspension, top dose 2.56 µM)”: the AUC amounted to 0.948 and the IC50 was greater than 2560 nM.
The matching figures for “GT3TKB (stomach, adherent, top dose 2.56 µM)”: 0.99 and greater than 2560 nM.
For H4 (glioma, adherent, top dose 2.56 µM) the same measures were 0.826 and 1530 nM.
For “H9 (lymphoid neoplasm, suspension, top dose 2.56 µM)” the same measures were 0.957 and greater than 2560 nM.
For the cell line “H290 (mesothelioma, adherent, top dose 2.56 µM)”, the AUC was 0.956 and the IC50 was greater than 2560 nM.
For “H513 (mesothelioma, semi-adherent, top dose 2.56 µM)” the same measures were 0.982 and greater than 2560 nM.
For “H2369 (mesothelioma, adherent, top dose 2.56 µM)” the same measures were 0.984 and greater than 2560 nM.
For the cell line “H2373 (mesothelioma, adherent, top dose 2.56 µM)”, the AUC came to 0.979 and the 50% inhibitory concentration (IC50) is greater than 2560 nM.
For “H2461 (mesothelioma, adherent, top dose 2.56 µM)” the same measures were 0.974 and greater than 2560 nM.
For “H2591 (mesothelioma, adherent, top dose 2.56 µM)” the same measures were 0.922 and greater than 2560 nM.
For “H2595 (mesothelioma, adherent, top dose 2.56 µM)” the same measures were 0.922 and greater than 2560 nM.
As for “H2722 (mesothelioma, adherent, top dose 2.56 µM)”, the AUC stood at 0.946 and the IC50 is greater than 2560 nM.
Take “H2731 (mesothelioma, adherent, top dose 2.56 µM)”: the AUC turned out to be 0.844 and the IC50 amounted to 2240 nM.
For the cell line “H2795 (mesothelioma, adherent, top dose 2.56 µM)”, the AUC turned out to be 0.781 and the IC50 was found to be 1050 nM.
The matching figures for “H2803 (mesothelioma, adherent, top dose 2.56 µM)”: 0.976 and greater than 2560 nM.
Consider “H2804 (mesothelioma, adherent, top dose 2.56 µM)”, for which the AUC is 0.947 and the IC50 was greater than 2560 nM.
